# Data: the supplement of paper PMC8728848
# The other results are listed elsewhere or left out.
# B1: PX14379A-bvu-539-28-539 (Bacteroides vulgatus) (protein)
# chain: EPYSEIIEEDYVPTEADEIALLATTYSQLRFVMDWYGLFDLQEESGDVIVTPTRPNGWDDGGTYKQMHKHTWDNQQGQPQSIWDYCYKGIANANKILKRADEGFFTEESKPKVVAEVKGVRALWYSILCDTHGNIPIQTSFSEEVPVQSTRKQVFDFIINELKEVMPNLPTEVNKSTYGRLTQWGAKCLMARMYLNAGVYTGTPMWNECLEQCNDIINSGLFSLETNYTDIFKTENSGCVETIFAIPYDEVYNEGDNNGPVFGAHMKFLSSNSRKVFNMQTTPWGGSAANPQFINSYDPDDMRLKYTWLQGDQYSPDGVLITTFPNKLPSIYKTDTDDGYRVGKYEIKVGAKSLLSNDFPYFRYTEVLLMKAECLLRLGQNETEAAHIVSQIRERAFRESAHPEKATVDAAWLKGDTHINYGTLDEKGQIDDAGNTEVVELGGLYDEWGWEFAAEARRRTDMIRFGTYQKKSWFNHTPTANDLNGNSILFPIHLDHLNTNPNLQQNPGYAGK
# Columns and labels:
# Assay in all cases: glycan array binding signal (z-score within array); higher = stronger binding
# Settings in all cases: glycan notation: IUPAC condensed, linker removed
# Gal6S(b1-4)Glc6S = biological target: Gal6S(b1-4)Glc6S
# How it was run: (§1)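 The binding signal is a Z-score computed within each array and averaged over linkers. Arrays of the same protein sequence at different concentrations or buffers were also averaged together. Data originate from 3228 arrays in the Consortium for Functional Glycomics database, kept only where the protein sequence was available.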
# Gal6S(b1-4)GlcNAc = biological target: Gal6S(b1-4)GlcNAc
# How it was run: as §1
# Gal6S(b1-4)GlcNAc6S = biological target: Gal6S(b1-4)GlcNAc6S
# How it was run: as §1
# GalNAc(a1-3)Gal = biological target: GalNAc(a1-3)Gal
# How it was run: as §1
# GalNAc(a1-3)GalNAc = biological target: GalNAc(a1-3)GalNAc
# How it was run: as §1
# [1] = biological target: GalNAc(a1-3)GalNAc(b1-3)Gal(a1-4)Gal(b1-4)Glc
# How it was run: as §1
# [2] = biological target: GalNAc(a1-3)GalNAc(b1-3)Gal(a1-4)Gal(b1-4)GlcNAc
# How it was run: as §1
# GalNAc(b1-3)Gal = biological target: GalNAc(b1-3)Gal
# How it was run: as §1
# [3] = biological target: GalNAc(b1-3)Gal(a1-4)Gal(b1-4)GlcNAc
# How it was run: as §1
# [4] = biological target: GalNAc(b1-3)Gal(a1-4)Gal(b1-4)GlcNAc(b1-3)Gal(b1-4)Glc
# How it was run: as §1
# [5] = biological target: GalNAc(b1-3)Gal(a1-6)Gal(b1-4)Glc
# How it was run: as §1
# GalNAc(b1-3)GalNAc = biological target: GalNAc(b1-3)GalNAc
# How it was run: as §1
# GalNAc(b1-3)GlcNAc = biological target: GalNAc(b1-3)GlcNAc
# How it was run: as §1
# GalNAc(b1-4)Gal(b1-4)Glc = biological target: GalNAc(b1-4)Gal(b1-4)Glc
# How it was run: as §1
# GalNAc(b1-4)GlcNAc = biological target: GalNAc(b1-4)GlcNAc
# How it was run: as §1
# [6] = biological target: GalNAc(b1-4)GlcNAc(b1-2)Man
# How it was run: as §1
# [7] = biological target: GalNAc(b1-4)GlcNAc(b1-2)Man(a1-3)[GalNAc(b1-4)GlcNAc(b1-2)Man(a1-6)]Man(b1-4)GlcNAc(b1-4)GlcNAc
# How it was run: as §1
# [8] = biological target: GalNAc(b1-4)GlcNAc(b1-3)GalNAc(b1-4)GlcNAc
# How it was run: as §1
# GalNAc(b1-4)GlcNAc6S = biological target: GalNAc(b1-4)GlcNAc6S
# How it was run: as §1
# GalNAc(b1-6)GalNAc = biological target: GalNAc(b1-6)GalNAc
# How it was run: as §1
# GalNAc3S(b1-4)GlcNAc = biological target: GalNAc3S(b1-4)GlcNAc
# How it was run: as §1
# GalNAc3S(b1-4)GlcNAc3S = biological target: GalNAc3S(b1-4)GlcNAc3S
# How it was run: as §1
# [9] = biological target: GalNAc3S(b1-4)[Fuc(a1-3)]GlcNAc
# How it was run: as §1
# GalNAc4S6S(b1-4)GlcNAc = biological target: GalNAc4S6S(b1-4)GlcNAc
# How it was run: as §1
# GalNAc6S(b1-4)GlcNAc = biological target: GalNAc6S(b1-4)GlcNAc
# How it was run: as §1
# Glc(a1-4)Glc = biological target: Glc(a1-4)Glc
# How it was run: as §1
# [10] = biological target: Glc(a1-4)Glc(a1-4)Glc(a1-4)Glc
# How it was run: as §1
# Glc(a1-6)Glc(a1-6)Glc = biological target: Glc(a1-6)Glc(a1-6)Glc
# How it was run: as §1
# [11] = biological target: Glc(a1-6)Glc(a1-6)Glc(a1-6)Glc
# How it was run: as §1
# Glc(b1-4)Glc = biological target: Glc(b1-4)Glc
# How it was run: as §1
# Glc(b1-6)Glc = biological target: Glc(b1-6)Glc
# How it was run: as §1
# GlcA(b1-3)Gal = biological target: GlcA(b1-3)Gal
# How it was run: as §1
# GlcA(b1-3)GlcNAc = biological target: GlcA(b1-3)GlcNAc
# How it was run: as §1
# GlcA(b1-6)Gal = biological target: GlcA(b1-6)Gal
# How it was run: as §1
# [12] = biological target: GlcA3S(b1-3)Gal(b1-4)GlcNAc(b1-2)Man
# How it was run: as §1
# [13] = biological target: GlcA3S(b1-3)Gal(b1-4)GlcNAc(b1-3)Gal(b1-4)Glc
# How it was run: as §1
# [14] = biological target: GlcNAc(a1-3)Gal(b1-4)GlcNAc
# How it was run: as §1
binder,measurement,setting,value
B1,glycan array binding signal (z-score),Gal6S(b1-4)Glc6S,-0.28
same,glycan array binding signal (z-score),Gal6S(b1-4)GlcNAc,-0.094
same,glycan array binding signal (z-score),Gal6S(b1-4)GlcNAc6S,-0.175
same,glycan array binding signal (z-score),GalNAc(a1-3)Gal,0.01
same,glycan array binding signal (z-score),GalNAc(a1-3)GalNAc,-0.477
same,glycan array binding signal (z-score),[1],-0.138
same,glycan array binding signal (z-score),[2],-0.436
same,glycan array binding signal (z-score),GalNAc(b1-3)Gal,-0.484
same,glycan array binding signal (z-score),[3],-0.271
same,glycan array binding signal (z-score),[4],0.841
same,glycan array binding signal (z-score),[5],2.98
same,glycan array binding signal (z-score),GalNAc(b1-3)GalNAc,-0.551
same,glycan array binding signal (z-score),GalNAc(b1-3)GlcNAc,-0.041
same,glycan array binding signal (z-score),GalNAc(b1-4)Gal(b1-4)Glc,-0.5
same,glycan array binding signal (z-score),GalNAc(b1-4)GlcNAc,-0.26
same,glycan array binding signal (z-score),[6],-0.549
same,glycan array binding signal (z-score),[7],-0.102
same,glycan array binding signal (z-score),[8],2.28
same,glycan array binding signal (z-score),GalNAc(b1-4)GlcNAc6S,-0.334
same,glycan array binding signal (z-score),GalNAc(b1-6)GalNAc,-0.384
same,glycan array binding signal (z-score),GalNAc3S(b1-4)GlcNAc,-0.46
same,glycan array binding signal (z-score),GalNAc3S(b1-4)GlcNAc3S,-0.149
same,glycan array binding signal (z-score),[9],0.013
same,glycan array binding signal (z-score),GalNAc4S6S(b1-4)GlcNAc,-0.399
same,glycan array binding signal (z-score),GalNAc6S(b1-4)GlcNAc,2.64
same,glycan array binding signal (z-score),Glc(a1-4)Glc,-0.369
same,glycan array binding signal (z-score),[10],-0.043
same,glycan array binding signal (z-score),Glc(a1-6)Glc(a1-6)Glc,-0.415
same,glycan array binding signal (z-score),[11],-0.152
same,glycan array binding signal (z-score),Glc(b1-4)Glc,-0.49
same,glycan array binding signal (z-score),Glc(b1-6)Glc,0.212
same,glycan array binding signal (z-score),GlcA(b1-3)Gal,-0.228
same,glycan array binding signal (z-score),GlcA(b1-3)GlcNAc,-0.262
same,glycan array binding signal (z-score),GlcA(b1-6)Gal,-0.175
same,glycan array binding signal (z-score),[12],-0.575
same,glycan array binding signal (z-score),[13],-0.319
same,glycan array binding signal (z-score),[14],-0.519
